The text below walks through data of PMC12136788.

To fix the notation:
T1: UNK ZnF1-3 (human, UniProt Q9C0B0 31-174)
T1 sequence: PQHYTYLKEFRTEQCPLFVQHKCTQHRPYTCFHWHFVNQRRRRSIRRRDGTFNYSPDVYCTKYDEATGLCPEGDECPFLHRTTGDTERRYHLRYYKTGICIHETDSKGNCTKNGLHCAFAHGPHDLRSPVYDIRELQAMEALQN

B1: chr1:39494447:39494448:+_ENSG00000168653_ENST00000372967|hu_mus|hu_hu_hu_mus_False|8_58 (ssRNA)
RNA: GGGAGUUCUACAGUCCGACGAUCGCACCGAGCGGCGUUCUUAUAGGGCUGUUCUGCGCUUAGGAACAUAAAGUGCCGAUCUAUGUUGAUGCCCAGCUUUUUCUGUAUGUCAAGGAAAGGCAUGGCUGAUGCUCGUGCUUGUCACAACAGAGGAUUGAGCAUCA
B2: chr16:45382771:45382772:-_ENSMUSG00000022661_ENSMUST00000163230|mus_hu|FALSE|FALSE (ssRNA)
RNA: GGGAGUUCUACAGUCCGACGAUCCUGGGUCAUGUUAUAAGACAAAUGGACAGGGAGGGCAUGCUUCUCAAAAAAUGUGAGCUAUUGUCUAAGACUAACAAUAUUUAUCUAGCUAUAAAAAUAAGUUAAAUGAAUAAGUUAAGACAACAGAGGAUUGAGCAUCA
B3: chr16:94690093:94690094:+_ENSMUSG00000040785_ENSMUST00000117648|mus_hu|mus_mus_mus_hu_True|58_68 (ssRNA)
RNA: GGGAGUUCUACAGUCCGACGAUCGGGCUGGGAUGACGGACACACAGCCUCGAUUCCAGGGGGAAAAAAAAAUAGCCAAUACUAAUUAAAAAGUGUUAAUGAUUUUUGAAAAUCAGAUUACAUCUAUAAAAGAUGAAAAGCAAACAACAGAGGAUUGAGCAUCA
B4: chr10:35314101:35314102:-_ENSG00000108094_ENST00000537177|hu_hu|motif|central (ssRNA)
RNA: GGGAGUUCUACAGUCCGACGAUCUUCACCUGUACACAGAUAAUGUAACCAUGUAAGUUUCCUUCCACUGAAAUGUUGGCGGUAAAAUAAUUCAAACAUCUGUACACUUUUUUCUAAUUCCUGGGGAAUUGCAAACGUAGAUGACAACAGAGGAUUGAGCAUCA
B5: chr7:138056749:138056750:+_ENSMUSG00000040268_ENSMUST00000120441|mus_mus|FALSE|FALSE (ssRNA)
RNA: GGGAGUUCUACAGUCCGACGAUCGCAGUUUAUUCUCAAGUCAUUACAGUGUUCCACCGACUGGACAUACAGAGACAGCAGGGUAACAGUAAACAUUAGGAGGCACAUUCCUGUUCUGAAAGGAGAUACAUUAUACACACAGGGCAACAGAGGAUUGAGCAUCA
B6: 60531726_60532136_2099_CDS_ENSMUSG00000002812_ENSMUST00000002889|mouse|control|control (ssRNA)
RNA: GGGAGUUCUACAGUCCGACGAUCCUGCACCAGGAGUGUGAUUUCCGCCUUCCCUUUCCGCUCAUUCUUGUUUAUUUUCUCUGCAAAGAGCCUGGCCUUAGUCGUGUUACUCAGUGUGGCCUGGGCCCCCCGCCACACAUAAAUCAACAGAGGAUUGAGCAUCA
B7: chr4:115894766:115894767:+_ENSMUSG00000028698_ENSMUST00000030464|mus_hu|mus_mus_mus_hu_True|8_18 (ssRNA)
RNA: GGGAGUUCUACAGUCCGACGAUCUUCCACACGGAAAUGUACUUCGGGUUUUCCAACGGCCAGUACCAGUCCGGCCAAACUACCCGAACAGGGUCCUCCCCCUCUCUCCUACAGAACUAAAGCACCCAACAAAAUACUUUCAAGCAACAGAGGAUUGAGCAUCA
B8: chr19:36967278:36967279:+_ENSMUSG00000024811_ENSMUST00000025729|mus_mus|FALSE|FALSE (ssRNA)
RNA: GGGAGUUCUACAGUCCGACGAUCAUGGAAUGUGAUACAAGUAGACACUCAGAUGGGCAGAACACUACACACACACACAUACACAAAUUAAAUUUCACCUCAAAAAAAAAUCACAAGGCAAAAGAAAAAGCAAUUCCAUUAUUACAACAGAGGAUUGAGCAUCA
B9: chr1:39494564:39494565:+_ENSG00000168653_ENST00000372967|hu_hu|hu_hu_hu_mus_True|38_58 (ssRNA)
RNA: GGGAGUUCUACAGUCCGACGAUCAUGCAUUCGCCUCAUCGUUUUGUACCGAAGCAAGCACUCUUCGAAGUCAUCGAAUUCUAUCUUGCACUCCUUUUCUGCCCGAGUCCCACCGAUCCCGUGUGCACACUCUAUCCACUCUUUCAACAGAGGAUUGAGCAUCA
B10: chr12:120565580:120565581:-_ENSG00000089154_ENST00000300648|hu_hu|FALSE|FALSE (ssRNA)
RNA: GGGAGUUCUACAGUCCGACGAUCUGGAGGAGGCAAUUUUCAGUUGUGUGUGGGUUUGAUUUAAGGCUUUGGCUGUGGUCUAUUGAUAUUAAAAUACUUUCUGGGAACGCCAUCUUCCAAGCUCCCCAUUGGAACAAAUGUAUUCAACAGAGGAUUGAGCAUCA
B11: chr15:98780342:98780343:-_ENSMUSG00000072235_ENSMUST00000097014|mus_hu|FALSE|FALSE (ssRNA)
RNA: GGGAGUUCUACAGUCCGACGAUCAACCCAUCACAGAAAUGGACAGCUUGGGUCUGUAACAAAGCAUUCAUGUUUUAGAGCAUAGGUCAGUAAUUGUAUAUGAGAGCAUACACUGCUACAUACAAAUUAACUGAUCAGACCACACAACAGAGGAUUGAGCAUCA
B12: chr17:65740002:65740003:+_ENSG00000130935_ENST00000581375|hu_hu|hu_hu_hu_mus_False|1_48 (ssRNA)
RNA: GGGAGUUCUACAGUCCGACGAUCAACAAAUCUUUCUUCCCUGGACGAACAGGAAGAUUCAUAUUAAAAAAAAUAUAUAUCCAUCAAGGAGAAUUGAGUGGCCACACCUUUACUCCCAGCACUUUGGGAGGUGGAUCCUCUAUUCAACAGAGGAUUGAGCAUCA
B13: chr5:28742860:28742861:+_ENSMUSG00000048271_ENSMUST00000114884|mus_mus|FALSE|FALSE (ssRNA)
RNA: GGGAGUUCUACAGUCCGACGAUCAGAAUCUCUUGAAAAAGAAAAGGUGAGAUUUCCUCCUCAAGAAGAGUAUCAAUAUAAUAAGGAUUUAACAAAUGUGGCCAAGCCAAGGGCAGCAUAAGGUUAUGUUCAGGUAAGCAGCUGCAACAGAGGAUUGAGCAUCA
B14: chr1:93988920:93988921:+_ENSG00000137942_ENST00000370253|hu_mus|motif|central (ssRNA)
RNA: GGGAGUUCUACAGUCCGACGAUCCAGAUCAUGGGCAUAUCUCAUUAAUUCACCAUAUACUCUGUGCGCCAUUUCUUCUGCGGCGGCCUCUCGCUGUCCUGCAUAGUCGUUUAACUCAUUAAGGAUGUUAAAAAAGGCGAUACACAACAGAGGAUUGAGCAUCA

The other results are listed elsewhere or left out.

The assay addresses T1, UNK ZnF1-3. Briefly: nsRBNS (natural sequence RNA bind-n-seq); RBNS binding buffer (assumed for nsRBNS): 25 mM Tris pH 7.5, 150 mM KCl, 3 mM MgCl2, 0.01% Triton X-100, 500 ug/ml BSA, 20 U/ml SUPERase-In, 4 C; UNK is unkempt and MSI1 is Musashi-1; names of the RNAs are library labels; protein concentration not given here; high values mean tight binding.
Regarding B1, the binding signal amounted to 0.781 enrichment R. The same measure for B2: 2.02 enrichment R.

In the case of B3, the binding signal was 1.91 enrichment R. Consider B4, for which the binding signal came out at 0.949 enrichment R. In the case of B5 it was 1.74 enrichment R. The same measure for B6: 0.682 enrichment R.

As for B7, the binding signal turned out to be 1.25 enrichment R. The same measure for B8: 1.85 enrichment R.

B9: the binding signal stood at 0.706 enrichment R. In the case of B10 it was 1.61 enrichment R; in that of B11, 0.901 enrichment R. Take B12: the binding signal came to 1.82 enrichment R. In the case of B13, the binding signal is 1.72 enrichment R.

B14 displayed a binding signal of 0.873 enrichment R.
